Measured values as given in article PMC4336329 (PLoS ONE, 2015).
The whole screen tested about 310,000 compounds, of which about 2,200 (0.71%) showed an effect of 50% or more. The effect is printed as a negative number. Some of the results follow.

biological target: human ether-à-go-go-related gene (hERG) potassium channel (human, UniProt Q12809); experiment: primary screen, population patch clamp on CHO cells stably expressing hERG
Sequence (Q12809 whole entry, looked up): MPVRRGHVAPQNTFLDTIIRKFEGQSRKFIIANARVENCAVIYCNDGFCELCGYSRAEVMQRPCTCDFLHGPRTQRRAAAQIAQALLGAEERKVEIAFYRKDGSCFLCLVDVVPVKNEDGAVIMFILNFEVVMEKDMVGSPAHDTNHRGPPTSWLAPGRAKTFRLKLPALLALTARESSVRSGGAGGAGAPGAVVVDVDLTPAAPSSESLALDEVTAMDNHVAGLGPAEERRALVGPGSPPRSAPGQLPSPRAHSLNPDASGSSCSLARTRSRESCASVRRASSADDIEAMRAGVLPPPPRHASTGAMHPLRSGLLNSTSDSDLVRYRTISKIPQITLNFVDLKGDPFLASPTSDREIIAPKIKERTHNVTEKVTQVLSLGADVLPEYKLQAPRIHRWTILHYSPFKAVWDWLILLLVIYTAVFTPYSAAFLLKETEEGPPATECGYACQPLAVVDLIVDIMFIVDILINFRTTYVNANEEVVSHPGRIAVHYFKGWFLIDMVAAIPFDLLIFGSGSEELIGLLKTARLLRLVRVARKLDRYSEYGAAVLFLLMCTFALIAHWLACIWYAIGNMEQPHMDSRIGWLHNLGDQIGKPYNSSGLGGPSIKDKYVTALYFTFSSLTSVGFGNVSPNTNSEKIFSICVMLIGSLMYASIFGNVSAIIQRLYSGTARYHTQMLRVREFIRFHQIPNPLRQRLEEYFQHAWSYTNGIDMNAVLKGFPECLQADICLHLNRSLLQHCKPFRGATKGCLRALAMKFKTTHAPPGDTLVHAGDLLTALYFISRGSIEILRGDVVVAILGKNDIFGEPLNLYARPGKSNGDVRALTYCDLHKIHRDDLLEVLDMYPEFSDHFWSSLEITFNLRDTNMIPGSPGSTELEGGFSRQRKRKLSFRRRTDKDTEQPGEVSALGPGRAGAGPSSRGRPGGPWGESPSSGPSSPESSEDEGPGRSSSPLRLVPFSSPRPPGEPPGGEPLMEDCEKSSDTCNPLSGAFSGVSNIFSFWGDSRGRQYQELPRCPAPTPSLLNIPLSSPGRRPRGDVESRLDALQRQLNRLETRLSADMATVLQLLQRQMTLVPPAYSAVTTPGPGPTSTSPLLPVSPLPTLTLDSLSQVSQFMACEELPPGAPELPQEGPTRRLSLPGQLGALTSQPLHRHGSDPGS

Row | SMILES | hERG current change (%, negative = inhibition) at 1uM [%]
1 | Cc1ccc(C(=O)N2CCC3(CC2)Oc2ccc(Cl)cc2C(=O)C32CC(c3ccc(Cl)cc3)=NO2)s1 (stereo not shown) | 11.5
2 | CC(=O)c1cccc(NC(=O)C(=O)c2cn(CC(=O)N3CCCCC3)c3ccccc23)c1 | -5.28
3 | CCOC1=NS(=O)(=O)c2ccccc21 | 6.24
4 | O=[N+]([O-])c1ccc(CSc2nc3ccccc3[nH]2)cc1 | -0.0232
5 | CC1CCCC(C)N1C(=O)CSc1nnc(COc2cccc3cccnc23)o1 (stereo not shown) | 11.3
6 | Cc1ccc(NC(=O)CSc2nnc(NC(=O)C3CC3)s2)cc1 | 16.7
7 | COc1ccc(NC(=O)c2cc(-c3cc(OC)c(OC)c(OC)c3)nc3ccccc23)cc1OC | 11.1
8 | Cc1cc(Cl)cc(Cl)c1OCCOCCN(C)C.O=C(O)C(=O)O | 3.77
9 | O=C(O)c1cccc(NC(=O)c2ccc(COc3ccc(Cl)cc3)cc2)c1 | 10
10 | C/C(=N\NC(N)=O)C1(C)CCCCC1 | 5.86
11 | O=C(N/N=C/c1ccco1)C1CC1 | 10.8
12 | Cc1ccc(S(=O)(=O)N(C)C)cc1NC(=S)NCCc1ccccn1 | 17.5
13 | Cc1c(C(=O)NCC(C)C)sc2nc(-c3ccc(F)cc3)cn12 | 0.013
14 | COc1cc(C(=O)NC2CCN(CC(=O)NC3CCCCC3C)CC2)cc(OC)c1OC (stereo not shown) | 8.93
15 | CCOC(=O)N1CCN(S(=O)(=O)c2ccc(OCC)c(C)c2)CC1 | -0.526
16 | COc1ccccc1N1CCN(C(=O)CSc2nc(N)cc(=O)[nH]2)CC1 | 4.68
17 | COc1ccc(C(=O)CC2SC(N)=NC2=O)cc1 (stereo not shown) | 13.6
18 | Cc1ccc(OCCN2CCN(C(=O)CCC(=O)Nc3nnc(CC(C)C)s3)CC2)cc1 | -5.91
19 | O=C1NC(=O)N(c2cccc(F)c2)C(=O)/C1=C/c1ccc(N2CCOCC2)cc1 | 12
20 | COc1cc(SC)ccc1C(=O)NNC(=O)c1cc(C)oc1C | 14.7

Row | SMILES | hERG current change (%, negative = inhibition) at 1uM [%]
21 | CCOCC(=O)Nc1ncc(S(=O)(=O)c2ccc([N+](=O)[O-])cc2)s1 | 2.86
22 | COc1ccc(CC(=O)N2CCOCC2)cc1 | 2.04
23 | CCc1ccccc1N(C(=O)CCC(=O)Nc1cc(C)on1)C(C(=O)NC1CCCC1)c1ccco1 (stereo not shown) | 0.765
24 | CC(C)C1Oc2cc3oc(=O)ccc3cc2C1=O (stereo not shown) | -8.41
25 | CC(C)(C)n1ncc2c(=O)n(CC(=O)N3CCCCCC3)cnc21 | 11.2
26 | CCC(C)(C)n1nnnc1C(c1cccs1)N1CCc2ccccc21 (stereo not shown) | 7.92
27 | CCN1C(=O)c2cccc3c(N)ccc1c23 | -2.01
28 | COc1ccc(OC)c2[nH]c(=O)c(CCNC(=O)c3cccs3)cc12 | -2.67
29 | COc1ccc(C(=O)NCc2ncccc2C)cc1OC1CCN(C(C)=O)CC1 | 15.7
30 | Cc1ccnc(NC(=O)CNC(=O)c2ccccc2)c1 | -2.38
31 | COc1ccc(CCCNC(=O)C2CCC(=O)N(CC3CCCCC3)C2)cc1 (stereo not shown) | 10.4
32 | C=CCNC(=S)N/N=C(\C)c1cccc(NC(C)=O)c1 | 11
33 | Cc1cc(=O)n2nc(N3CCCC(C(=O)NCCc4ccccc4)C3)sc2n1 (stereo not shown) | -2
34 | O=C(NCc1ccccc1)c1cc2nc(C3CC3)cc(C(F)(F)F)n2n1 | -1.13
35 | CC(C)C(NS(=O)(=O)c1cccc2nsnc12)C(=O)Nc1nc2ccc(Cl)cc2s1 (stereo not shown) | 12.8
36 | COCC(=O)NCCNc1nc2ccc(C)cc2cc1C | 1.14
37 | CCOc1ccc(C(=O)OC2CCN(C)CC2)cc1.Cl | -2.21
38 | Cn1c(=O)cc(OCCCC(=O)Nc2cccnc2)c2ccccc21 | 6.83
39 | Cc1c(N2C(=O)c3ccc(Br)cc3C2=O)c(=O)n(-c2ccccc2)n1C | 14.3
40 | O=C(N/N=C/c1cccc(O)c1)c1cc2c(ccc3ccccc32)o1 | 13

Row | SMILES | hERG current change (%, negative = inhibition) at 1uM [%]
41 | COc1ccc(NC(=S)N2CCC(N(C)CC3CCCO3)CC2)cc1Cl (stereo not shown) | 1.77
42 | O=C(NC(=S)Nc1nc(-c2cccc([N+](=O)[O-])c2)cs1)c1cc(Cl)ccc1Cl | 10.8
43 | Cc1nn(-c2ccccc2)c(C)c1/C=N\N1CCN(c2ccc(Cl)cc2)CC1 | 3.06
44 | CCN(CC)C(=O)c1[nH]cnc1C(=O)NCC(=O)OCc1ccccc1 | 13.6
45 | CC(C)CN1C(=S)SC(C)(C)C1n1oc(=O)n(-c2ccccc2)c1=O (stereo not shown) | 12.9
46 | CC(C)OC(=O)C(NC(=O)c1ccccc1)=C1CCCCC1 | 13.5
47 | CC(C)c1nnc(NC(=O)CC23CC4CC(CC(C4)C2)C3)s1 | 6.98
48 | COC(=O)c1cc(NCc2ccc3c(c2)OCO3)ccc1N1CCOCC1 | -6.45
49 | COc1ccc(CCNC(=O)CCc2ccsc2)cc1OC | 14.4
50 | CCCCn1c(SCC(=O)c2ccc(OC)cc2OC)nc2cc(S(N)(=O)=O)ccc21 | 11.7
51 | COc1cc2c(cc1OC)CN(Cc1ccccc1)CC2 | 13.6
52 | Cc1nc2sc(C(=O)OCC(=O)N3c4ccccc4CC3C)c(C)c2c(=O)[nH]1 (stereo not shown) | 12.5
53 | N#C/C(=C\c1c(N2CCCCCC2)nc2ccccn2c1=O)C(=O)NCc1ccco1 | 2.14
54 | O=C1Nc2ccc(C(F)(F)F)cc2N2CCCC12 (stereo not shown) | 12.8
55 | COc1ccccc1C(=O)N1CCN(C(=O)c2oc3ccc(C)cc3c2C)CC1 | 9.2
56 | N#Cc1ccc(N2CCNCC2)c(F)c1 | -2.47
57 | CCc1nc(NCCN2CCOCC2)c(C#N)c2c1CCCC2 | -19.7
58 | CCn1c(CSc2nc3ccccc3s2)nc2ccccc21 | 6.52
